Measured values reported in ChEMBL document CHEMBL4699491, “Identification of TNO155, an Allosteric SHP2 Inhibitor for the Treatment of Cancer” (J Med Chem, 2020).
Values after ≈ are worked out from the molar mass of the structure shown.

Columns and labels:
[1] = physchem; details: buffer, pH 6.8
[2] = physchem; details: octanol/water
[3] = physchem; details: octanol/water; remark: listed apart in the source

| SMILES | solubility [1] [µM] | logP [2] | logD [3] |
| --- | --- | --- | --- |
| Nc1nc(N2CCC3(CCC[C@H]3N)CC2)cnc1Sc1cccnc1C(F)(F)F | 668 (≈ 284 µg/mL) | 3 | 0.3 |
| CC1(CN)CCN(c2cnc(Sc3cccnc3C(F)(F)F)c(N)n2)CC1 | 304 (≈ 121 µg/mL) | 1 | -1.6 |
| CC1(N)CCN(c2cnc(Sc3ccccc3Cl)c(N)n2)CC1 | 160 (≈ 56 µg/mL) | 2.4 | 0.8 |
| CC1(CN)CCN(c2cnc(-c3cccc(Cl)c3Cl)c(N)n2)CC1 | 715 (≈ 262 µg/mL) | – | – |
| Nc1nccc(Sc2cnc(N3CCC4(CCC[C@H]4N)CC3)cn2)c1Cl | 450 (≈ 176 µg/mL) | 2.7 | 1.2 |
